This is an account of results in ChEMBL document CHEMBL1201862, “PubChem BioAssay data set” (2004).

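Briefly, cells in 96-well plates were exposed to five compound concentrations for 48 h, and endpoints were estimated by linear interpolation. The concentration for 50% growth inhibition is given as GI50.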 Calls of active or inactive are those of the source. Rule as the data show it: active = GI50 up to about 1.1 µM and inactive = higher. Square brackets hold non-standard residues; d marks the D form. Peptide text beside a SMILES is read from it. * marks the point of attachment. Bn2Val = CC(C)[C@@H](C(=O)*)N(Cc1ccccc1)Cc1ccccc1; Phe(4-NO2) = N[CH](Cc1ccc([N+](=O)[O-])cc1)C(=O)O; NMeV = CN[C@H](C(=O)O)C(C)C; X25 = COc1ccc(CN*)c(OC)c1; dNMeA = CN[C@H](C)C(=O)O; Iva = CC[C](C)(N)C(=O)O; Cbz = O=C(OCc1ccccc1)*; Boc = CC(C)(C)OC(=O)*; Aib = CC(C)(N)C(=O)O; OBn = c1ccc(CO*)cc1; X48 = C1CCC(=NO*)C1; OtBu = CC(C)(C)O*; βAla = NCCC(=O)O Some results are limits rather than exact numbers.

For the test, the system named is NCI-H322M. Kind of test: growth of human tumour cells (NCI), 48 h.
As to `[N-]=[N+]=CC(=O)CCC(N)C(=O)O` (stereo unspecified), the GI50 is inactive: 1.6 µM.
Consider `CCNC(=S)N/N=C/c1ccccn1`, for which the GI50 was inactive: 12.2 µM.
The same measure for `Cc1ccc(S(=O)(=O)N/N=C/c2c(O)ccc3ccccc23)cc1`: inactive: 27.4 µM; for `Cc1ccc2nc(C(C)C)c(=O)[nH]c2c1`: inactive: > 100 µM; for `OCC(O)C(O)C(O)C(/C=N\Nc1ncnc2ccc(Br)cc12)=N/Nc1ncnc2ccc(Br)cc12` (stereo unspecified): inactive: 4.23 µM.
The same measure for `Cc1cn(C2CCN(CC3COC(C)(C)O3)O2)c(=O)[nH]c1=O` (stereo unspecified): inactive: > 100 µM; for `CC1=C/C(=C2/N=C(N(C)C)SS2)C(C)=N1.[O-][Cl+3]([O-])([O-])O`: inactive: > 100 µM.
The same measure for `N#Cc1c(-c2ccc(Cl)cc2)cc(-c2ccc(Nc3ccnc4cc(Cl)ccc34)cc2)nc1N`: inactive: > 100 µM.
Turning to `COc1cc(C2c3cc(OC)c(OC)c(O)c3C(=O)C3CCC(=O)N32)cc(OC)c1OC` (stereo unspecified), the GI50 is inactive: > 100 µM.
The same measure for `Cc1ccc([S@+]([O-])c2occc2C=O)cc1`: inactive: 15.8 µM.
As for `O=C(CCc1nnc2s/c(=C\c3ccccc3Cl)c(=O)n12)Nc1cc(Cl)ccc1Cl`, the GI50 is inactive: > 100 µM.
The same measure for `O=c1c(-c2ccccc2)c2oc(c1-c1ccccc1)CS(=O)(=O)CCC2`: inactive: > 100 µM; for `CCOc1cc(/C=N\O)cc(/C=N/O)c1O`: inactive: 44.6 µM.
The same measure for `COC(=O)C1CC(C=[N+](C)C)=C(SC)N1` (stereo unspecified): inactive: 30.9 µM; for `COc1c2c(nc3ccccc13)-c1cc3c(c(=O)n1C2)COC(=O)C3(O)CC(=O)N1CCOCC1` (stereo unspecified): inactive: 19.3 µM; for `CC(=O)N(C(C)=O)n1nc2c(n1)C(=O)c1ccccc1C2=O`: inactive: > 100 µM.
The same measure for `CC(C)(C)OC(=O)NC(Cc1ccc(OCc2ccccc2)cn1)C(=O)NCc1ccccc1` (stereo unspecified): inactive: 48.3 µM; for `N#Cc1c2nc3ccccc3nc2n2ccc3ccccc3c12`: inactive: > 100 µM; for `O=C1C[C@H](Sc2ccccc2)C2(OCCO2)[C@H]2ON3CCC[C@@H]3[C@@H]12`: inactive: 6.7 µM.
As for `Cc1ncc2c(n1)CCC1=C2OS(=O)(=O)CC1N(C)C` (stereo unspecified), the GI50 is inactive: > 100 µM.
For `O=c1[nH]c2c(c3ccccc13)CCc1ccccc1-2`, the GI50 was inactive: > 100 µM.
The same measure for `CC1C=C(NCC2(CO)CCC2)N=C(N)N1` (stereo unspecified): inactive: > 100 µM.
Consider `O=c1[nH]c(=O)n(C2CC(O)C(CO)O2)cc1C#Cc1ccc(F)cc1` (stereo unspecified), for which the GI50 is inactive: > 100 µM.
The same measure for `O=C(Oc1ccc(Cl)cc1[N+](=O)[O-])c1ccccc1`: inactive: > 100 µM; for `COC(=O)c1c(-c2ccccc2)c2sc3ccccc3n2c1N`: inactive: > 100 µM.
In the case of `Nc1nc2ccc(Sc3ccc4nc(N)[nH]c(=O)c4c3)cc2c(=O)[nH]1`, the GI50 is inactive: > 100 µM.
The same measure for `c1csc(-c2ccsc2-c2ccsc2)c1`: inactive: > 100 µM.
As to `O=C1OCc2c1cc1ccc(O)c(OC3OC(CO)C(O)C(O)C3O)c1c2-c1ccc2c(c1)OCO2` (stereo unspecified), the GI50 was inactive: > 100 µM.
As for `CC1(C)CC(=O)c2c(nc3ccc4ccccc4c3c2-c2ccc(NC(=O)CCC(=O)Nc3ccc(-c4c5c(nc6ccc7ccccc7c46)CC(C)(C)CC5=O)cc3)cc2)C1`, the GI50 is inactive: > 100 µM.
The same measure for `Cc1ccc(C2C(C(=O)C(C)(C)C)N2S(=O)(=O)c2ccc(C)cc2)cc1` (stereo unspecified): inactive: 51.3 µM; for `O=C(Nc1ccc2[nH]c3c(-c4ccccc4)nccc3c2c1)c1ccccc1[N+](=O)[O-]`: inactive: 7.46 µM; for `O=C(CCCC1Cc2ccccc2C1=O)c1ccccc1` (stereo unspecified): inactive: > 100 µM.
For `O=C(O)CCC(=O)Oc1ccc(O)c2c1CCCC2=O`, the GI50 was inactive: > 100 µM.
With `O=C(O)c1ccc([Se][Se]c2ccc(C(=O)O)cc2)cc1`, the GI50 was inactive: 5.36 µM.
The same measure for `Cn1ccnc1CCc1ccc(Cl)cc1Cl`: inactive: > 100 µM.
Take `CNC1=C/C(=N/C2=CC(=N/C(=C\C#N)C(C)(C)O)/OC2(C)C)OC1(C)C`: the GI50 is inactive: 33.2 µM.
The same measure for `Clc1ccc(-c2cn3c(nc4ccccc43)c(/C=C/c3cccs3)n2)cc1`: inactive: > 100 µM; for `O=C(N/N=C\c1ccc([N+](=O)[O-])cc1)Nc1cccc2ccccc12`: inactive: 48.2 µM.
Regarding `Cc1ccc(C(=O)c2[nH]c(NCc3ccccc3)c(C(=S)Nc3ccccc3)c2N)cc1`, the GI50 is inactive: 2.96 µM.
The same measure for `CN(C)c1ccc(/C=c2\sc3nnc(Cc4ccccc4)n3c2=O)cc1`: inactive: > 10 µM.
The same measure for `COc1ccc(OC)c(/C=N/N=C2\C(=O)Nc3c(Cl)cc(Cl)cc32)c1`: inactive: > 100 µM; for `CCCCc1c2c(nc3c1CCc1cc4cc5c(nc4nc1-3)-c1nc3c(c(CCCC)c1CC5)CCC/C3=C\c1ccccc1)/C(=C/c1ccccc1)CCC2`: inactive: > 100 µM; for `COc1cc(OC)c2nc(C)c3c(c2c1)OCC3`: inactive: > 100 µM.
With `Cc1ccc2c3c4c(ccc13)C(C)(C)OC4=C(C(C)C)C2=O`, the GI50 was inactive: > 100 µM.
As to `COc1ccc(C(=O)/C=C/c2ccc(OCC(=O)N3CCN(c4ccccc4)CC3)cc2)cc1`, the GI50 is inactive: > 100 µM.
The same measure for `COc1ccc(/C=C2\CCNC2=O)cc1`: inactive: > 100 µM; for `CCCCNC(=O)OCCN=C1c2ccccc2C(Br)C(Br)c2ccccc21` (stereo unspecified): inactive: > 100 µM.
In the case of `COC(=O)n1c(C[P+](c2ccccc2)(c2ccccc2)c2ccccc2)cc2ccccc21`, the GI50 was inactive: 4 µM.
The same measure for `CC1(C)[C@@H]2C[C@H]1C(Cc1ccccc1C[C@H]1c3cc(-c4ccccn4)ncc3[C@H]3C[C@@H]1C3(C)C)c1cc(-c3ccccn3)ncc12` (stereo partly specified): active: 0.411 µM; for `CC(=O)O[C@@]12CO[C@@H]1CC(O)[C@@]1(C)C(=O)[C@H](O)C3=C(C)C(O)C[C@@](O)(C(OC(=O)c4ccccc4)C12)C3(C)C` (stereo partly specified): inactive: 4.21 µM.
With `CC1=C2[C@@H](c3ccccc3)C3C=CC2(C=C3C(F)(F)F)N(C(=O)NC2CCCCC2)C1=O` (stereo partly specified), the GI50 was inactive: > 100 µM.
On to `C#C[C@]1(O)[C@@H](CO)O[C@@H](n2ccc(=O)[nH]c2=O)[C@@H]1O`, for which the GI50 is active: 0.248 µM.
The same measure for `CC([C@H]1CCC2C3CCC4CC5(CC[C@]4(C)C3CC[C@@]21C)c1ccccc1C(=O)N5C)N(C)C` (stereo partly specified): inactive: 22.1 µM; for `CC(=O)NC(CS)C(=O)NC(CO)C(=O)NC(CO)C(=O)NC(Cc1c[nH]c2ccccc12)C(=O)N1CCCC1C(=O)NC(CO)C(=O)NC(Cc1c[nH]c2ccccc12)C(=O)NC(Cc1c[nH]cn1)C(=O)NC(CO)C(=O)NC(Cc1c[nH]c2ccccc12)C(=O)NCC(=O)NCC(=O)NC(C)C(=O)NC(CCC(N)=O)C(=O)NC(CCCCN)C(=O)NC(C)C(=O)NC(CCCNC(=N)N)C(=O)NC(CCCCN)C(N)=O` (stereo unspecified) (Ac-CSSWPSWHSWGGAQKARK-NH2; configuration not given here): inactive: > 50 µM; for `COC(=O)CCC(NC(=O)C(CCC(=O)OC)NC(=O)C(CCC(=O)OC)NC(=O)C(CCC(=O)OC)NC(=O)C(CCC(=O)OC)NC(=O)C(Cc1ccc([N+](=O)[O-])cc1)NC(=O)C(CCC(=O)OC)NC(=O)C(CCC(=O)OC)NC(=O)C(CCC(=O)OC)NC(=O)C(CCC(=O)OC)NC(=O)C(CCC(=O)OC)NC(C)=O)C(N)=O` (stereo unspecified) (Ac-E(OMe)E(OMe)E(OMe)E(OMe)E(OMe)[Phe(4-NO2)]E(OMe)E(OMe)E(OMe)E(OMe)E(OMe)-NH2; configuration not given here): inactive: > 100 µM.
The same measure for `CC(=O)NC(CO)C(=O)NC(Cc1ccc(O)cc1)C(=O)NCC(N)=O` (stereo not drawn) (Ac-Ser-Tyr-Gly-NH2; configuration not given here): inactive: > 100 µM.
Take `COc1ccc(CNC(=O)[C@@H]2CCCN2C(=O)[C@@H](C)N(C)C(=O)[C@H](C(C)C)N(C)C(=O)[C@@H](NC(=O)[C@H](C(C)C)N(Cc2ccccc2)Cc2ccccc2)C(C)C)c(OC)c1` (Bn2Val-V[NMeV][dNMeA]P-X25): the GI50 is inactive: 2.77 µM.
The same measure for `CCC(C)(NC(=O)C(C)NC(=O)OC(C)(C)C)C(=O)NC(C)C(=O)NC(C)(CC)C(=O)ON=C1CCCC1` (stereo unspecified) (Boc-A[Iva]A[Iva]-X48; configuration not given here): inactive: > 100 µM; for `CC(NC(=O)OC(C)(C)C)C(=O)NC(Cc1ccccc1)C(=O)NCC(=O)O` (stereo not drawn) (Boc-Ala-Phe-Gly-OH; configuration not given here): inactive: > 100 µM.
In the case of `CC(C)(C)OC(=O)CC(NC(=O)OC(C)(C)C)C(=O)NC(CCCCNC(=O)OCc1ccccc1)C(=O)NC(C)(C)C(=O)NCCC(=O)OCc1ccccc1` (stereo unspecified) (Boc-D(OtBu)K(Cbz)[Aib][βAla]-OBn; configuration not given here), the GI50 is inactive: > 100 µM.
The same measure for `CNC(=O)CCC(NC(=O)OC(C)(C)C)C(=O)NC(Cc1ccc([N+](=O)[O-])cc1)C(=O)NCC(=O)NC` (stereo unspecified) (Boc-Glu(NHMe)-[Phe(4-NO2)]-Gly-NHMe; configuration not given here): inactive: > 100 µM; for `CSCCC(NC(=O)C(CC(C)C)NC(=O)CNC(=O)OC(C)(C)C)C(=O)N(C)C` (stereo not drawn) (Boc-Gly-Leu-Met-NMe2; configuration not given here): inactive: > 100 µM.
Consider `CC(NC(=O)C1CCCN1C(=O)CNC(=O)OC(C)(C)C)C(=O)O` (stereo not drawn) (Boc-Gly-Pro-Ala-OH; configuration not given here), for which the GI50 is inactive: > 100 µM.
The same measure for `CC(C)CC(NC(=O)OC(C)(C)C)C(=O)NC(CC(=O)OCc1ccccc1)C(N)=O` (stereo not drawn) (Boc-Leu-Asp(OBn)-NH2; configuration not given here): inactive: > 100 µM.
On to `CC(C)CC(NC(=O)OC(C)(C)C)C(=O)NC(CC(=O)OCc1ccccc1)C(=O)OCc1ccccc1` (stereo not drawn) (Boc-Leu-Asp(OBn)-OBn; configuration not given here), for which the GI50 is inactive: > 100 µM.
The same measure for `CCOCC(NC(=O)C(CC(C)C)NC(=O)OC(C)(C)C)C(N)=O` (stereo not drawn) (Boc-Leu-Ser(Et)-NH2; configuration not given here): inactive: > 100 µM.
